Laboratory results as given in PubChem BioAssay AID540317 (National Center for Advancing Translational Sciences (NCATS), 2011).
In all, about 390,000 compounds went through this assay and about 2,200 (0.56%) were called active. The shares of active, inactive and inconclusive entries below differ from those in the screen. The call rests on the fitted dose curve; in most records, active means well fitted inhibition curve with a large enough effect; inconclusive means small, poorly fitted or top-dose-only effect; inactive means no such curve, though single readings can be large or run the other way. Where the call is inconclusive, the potency comes from a doubtful curve fit.
Further: nearly all actives have a fitted effect of over 70% in size.
Potency means the concentration at half of the fitted maximal effect; tags describe the fitted curve by direction and shape.

What follows are compounds tested against Chromobox protein homolog 1 (Homo sapiens) (UniProt P83916) (assay: HTS for Inhibitors of HP1-beta Chromodomain Interactions with Methylated Histone Tails). Conditions: AlphaScreen HP1-beta / biotin-H3K9me3 peptide binding; series mostly up to 114 µM.
Sequence of UniProt P83916 (P83916 whole entry, looked up): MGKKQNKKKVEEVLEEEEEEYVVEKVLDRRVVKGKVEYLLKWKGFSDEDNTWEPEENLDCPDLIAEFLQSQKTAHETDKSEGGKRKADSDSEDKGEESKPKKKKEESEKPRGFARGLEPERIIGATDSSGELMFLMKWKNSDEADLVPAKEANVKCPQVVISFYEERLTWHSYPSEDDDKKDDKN
Procedure, shortened: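 AlphaScreen: HP1-beta (50 nM) preformed 30 min with biotin-H3(1-18)K9me3 peptide (50 nM) in PBS pH 7.4, 0.01% Tween-20. Compound added for 30 min at RT, then streptavidin donor/nickel chelate acceptor beads (10 ug/mL) for 30 min.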
In the case of `COc1ccc(CN(C)CCc2ccccn2)c(OC)c1OC`, the Potency is reported as inconclusive: 7.94 µM [inhibitor, full curve, poor fit]. With `NS(=O)(=O)c1ccc(CCNC(=S)NC2CCCC2)cc1` the Potency was inconclusive: 35.5 µM [inhibitor, single point]. In the case of `O=C(CCN1CCCC1Cc1ccccc1)c1ccc2c(c1)OCCO2` (stereo not given), the Potency is reported as inconclusive: 79.4 µM [inhibitor, partial curve]. In the case of `O=C(O)c1cc(C(=O)O)c(-c2ccccc2)c(C(=O)O)c1`, the Potency is reported as inconclusive: 31.6 µM [inhibitor, single point]. `Cc1cccc(C(=O)Nc2ccc(C(=O)N/N=C/c3ccco3)cc2)c1` was tested, and the Potency was inconclusive: 28.2 µM [inhibitor, full curve]. With `CCN(C(=O)CSc1ncccn1)C1CCS(=O)(=O)C1` (stereo not given) the Potency was “inactive”. For `CCN=c1scc(-c2ccccc2)n1/N=C/c1ccccn1`, the Potency was inconclusive: 12.6 µM [inhibitor, partial curve, poor fit]. In the case of `CC(C)C[C@@H](CNCC(=O)[C@H](Cc1ccccc1)NC(=O)c1[nH]cnc1C(=O)N[C@@H](C)CN)NC(=O)c1nc[nH]c1C(=O)N[C@@H](CC(=O)O)C(=O)O`, the Potency is reported as “inactive”. In the case of `O=C1CN(C(=O)COC(=O)c2ccc(N3CCCCCC3)c([N+](=O)[O-])c2)c2ccccc2N1`, the Potency is reported as inconclusive: 28.2 µM [inhibitor, partial curve]. `Cc1c(Cl)cccc1NC(=O)C(=O)NCC(c1cccnc1)N1CCN(c2ccccc2)CC1` (stereo not given) was tested, and the Potency was “inactive”. In the case of `C=C(C)CNC(=S)NN=C1c2ccccc2-c2ccccc21`, the Potency is reported as inconclusive: 20 µM [inhibitor, full curve]. In the case of `Cc1[nH]nc2c1/C(=N\O)CC(C)(C)C2`, the Potency is reported as “inactive”. With `Cc1ccc(S(=O)(=O)Nc2ccc(N(C)C)cc2)cc1` the Potency was inconclusive: 39.8 µM [inhibitor, partial curve, poor fit]. `COc1ccc(CNC(=O)Cn2nc(C)c3c(C)n(-c4ccccc4)nc3c2=O)cc1OC` was tested, and the Potency was inconclusive: 79.4 µM [inhibitor, partial curve, poor fit]. With `O=C(/C=C/c1cccs1)Nc1ccc([N+](=O)[O-])cc1` the Potency was inconclusive: 35.5 µM [inhibitor, single point]. With `CC(=O)Nc1ccc(N2CCCC(C)C2)c([N+](=O)[O-])c1` (stereo not given) the Potency was inconclusive: 70.8 µM [inhibitor, partial curve]. In the case of `COc1cc(NC(=S)NCCO)c(OC)cc1Cl`, the Potency is reported as inconclusive: 31.6 µM [inhibitor, partial curve, poor fit]. In the case of `Cn1nc(C(=O)Nc2nc(-c3ccccn3)cs2)c2ccccc2c1=O`, the Potency is reported as inconclusive: 31.6 µM [inhibitor, partial curve, poor fit]. `CN(C)CCn1c(=O)n(Cc2ccccc2)c(=O)c2c3c(sc21)CCCCC3` was tested, and the Potency was inconclusive: 70.8 µM [inhibitor, partial curve]. `Cc1cc(C)c(C#N)c(SCCN2CCCCC2)n1` was tested, and the Potency was “inactive”. For `CC(C)N1CCN(S(=O)(=O)c2ccccc2)CC1`, the Potency was inconclusive: 17.8 µM [inhibitor, full curve]. In the case of `Cc1ccccc1N=C1NC(=O)/C(=C/c2cccn2-c2cccc(C(=O)O)c2)S1`, the Potency is reported as inconclusive: 50.1 µM [inhibitor, partial curve]. In the case of `CCOC(=O)c1c(Cc2ccccc2)c[nH]c1C`, the Potency is reported as “inactive”. With `Cc1ccc(S(=O)(=O)NCC23C=CC(O2)C2C(=O)N(c4ccccc4)C(=O)C23)cc1` (stereo not given) the Potency was inconclusive: 89.1 µM [inhibitor, single point]. In the case of `CC(C(=O)N(C)C1CCS(=O)(=O)C1)N1C(=O)/C(=C/c2ccco2)SC1=S` (stereo not given), the Potency is reported as inconclusive: 56.2 µM [inhibitor, single point]. In the case of `O=C(CN1CCCCCC1)Nc1ccccc1F`, the Potency is reported as inconclusive: 31.6 µM [inhibitor, partial curve]. For `Cc1ccc2nc(N(CCCN(C)C)C(=O)c3cc(-c4cccs4)nc4ccccc34)sc2c1`, the Potency was inconclusive: 35.5 µM [inhibitor, partial curve]. With `COCCN(C(=O)c1snc(C(N)=O)c1N)C(C(=O)NC1CCCCC1)c1cc(OC)c(OC)c(OC)c1` (stereo not given) the Potency was “inactive”. With `C=CCc1cc(OC)ccc1OCCOCCN1CCc2ccccc2C1` the Potency was inconclusive: 56.2 µM [inhibitor, partial curve, poor fit]. With `O=C(C[C@@H]1C/C=C/CC[C@H](Cc2ccc(F)cc2)C(=O)OCCNC1=O)N[C@H](CO)Cc1ccccc1` the Potency was “inactive”. `CCc1sc(/C=C(/C#N)C(N)=S)cc1[N+](=O)[O-]` was tested, and the Potency was inconclusive: 17.8 µM [inhibitor, full curve]. `COc1ccc(-c2cc(-c3ccc(Cl)cc3)c(C#N)c(SCC(=O)O)n2)cc1` was tested, and the Potency was inconclusive: 89.1 µM [inhibitor, single point]. For `O=C1C=C(c2ccccc2)CC(c2cccs2)C1n1cnc([N+](=O)[O-])c1` (stereo not given), the Potency was inconclusive: 28.2 µM [inhibitor, single point]. For `CCCNC(=O)CCc1nnc2ccc(N3CCC(C)CC3)nn12`, the Potency was “inactive”. For `Cc1ccc(NC(=S)N/N=C2\CCCCC2C)cc1` (stereo not given), the Potency was inconclusive: 56.2 µM [inhibitor, single point]. For `Clc1ccc(N2CCN(Cc3ccc(Br)o3)CC2)cc1`, the Potency was inconclusive: 17.8 µM [inhibitor, full curve]. In the case of `COc1cc(C2C(C(=O)Nc3ccccc3)=C(C)Nc3nnnn32)cc(OC)c1OC` (stereo not given), the Potency is reported as “inactive”. `Cc1nnc2c3ccccc3nc(Nc3cccc(O)c3)n12` was tested, and the Potency was “inactive”. With `COc1ccc(C(=O)NC2CCCCC2)cc1OC1CCN(C(C)C)CC1` the Potency was “inactive”. For `Cc1ccccc1OCC(=O)NN1Cc2ccccc2C1=N`, the Potency was “inactive”. `Cc1cc(C)n(Cc2ccc(C(=O)N/N=C/c3ccc(-c4ccc([N+](=O)[O-])cc4)o3)o2)n1` was tested, and the Potency was inconclusive: 39.8 µM [inhibitor, single point]. `O=c1c(-c2ccco2)[n+]([O-])c2ccccc2n1OCc1ccccc1[N+](=O)[O-]` was tested, and the Potency was “inactive”. For `COc1cccc(-n2c(CCn3nc(C)c([N+](=O)[O-])c3C)n[nH]c2=S)c1`, the Potency was inconclusive: 31.6 µM [inhibitor, single point]. For `CC(C)C(C(=O)O)N1C(=O)/C(=C/C=C/c2ccco2)SC1=S` (stereo not given), the Potency was inconclusive: 11.2 µM [inhibitor, full curve, poor fit]. With `Cc1cccc(C)c1Nc1c(-c2ccc(O)cc2)nc2sccn12` the Potency was active: 15.8 µM. For `CCN(CC)CCN(C)C1CCC(c2ccccc2)CC1` (stereo not given), the Potency was inconclusive: 3.98 µM [inhibitor, full curve, poor fit]. In the case of `CCc1ccc(/C=C2/SC(=S)N(CCCC(=O)Nc3ccccc3C(=O)O)C2=O)cc1`, the Potency is reported as “inactive”. `COc1ccc(S(=O)(=O)c2nnn(-c3ccc(C)c(Cl)c3)c2C)cc1` was tested, and the Potency was “inactive”. For `Cc1cc(C)cc(NC(=O)C2CCN(S(=O)(=O)c3cccc(-c4noc(C)n4)c3)CC2)c1`, the Potency was “inactive”. `O=C1/C(=C/c2ccco2)CCc2ccccc21` was tested, and the Potency was inconclusive: 50.1 µM [inhibitor, partial curve, poor fit]. For `O=[N+]([O-])c1ccccc1CN1CCN(S(=O)(=O)Cc2ccccc2)CC1`, the Potency was inconclusive: 14.1 µM [inhibitor, full curve]. In the case of `CCc1c(C)[nH]c2ccc(OC)cc2c1=S`, the Potency is reported as inconclusive: 14.1 µM [inhibitor, full curve]. For `COCc1nnc(NC(=O)c2cc(C(=O)OC)cc([N+](=O)[O-])c2)s1`, the Potency was “inactive”. In the case of `CC(C)[C@H](NC(=O)C1CC(=O)N(c2ccc3c(c2)OCO3)C1)C(=O)NC1CCCC1` (stereo not given in full), the Potency is reported as “inactive”. `NC(=O)c1nsc(C(=O)N(c2ccccc2)C(C(=O)NCc2ccc(F)cc2)c2ccc(O)cc2)c1N` (stereo not given) was tested, and the Potency was “inactive”. For `CC1=C(CC/C(C)=N/NC(N)=S)C(C)(C)CCC1`, the Potency was inconclusive: 28.2 µM [inhibitor, single point]. For `COc1ccc(C(=O)c2nc3c(n2O)CCCC3)cc1OC`, the Potency was “inactive”. In the case of `COC(=O)c1ccc(C(=O)NN)cc1`, the Potency is reported as “inactive”. In the case of `O=C(NCC1CCCO1)c1ccc2[nH]c3c(c2c1)CCCC3` (stereo not given), the Potency is reported as “inactive”. For `COc1cc(N/N=C(\C)c2ccc(O)c(C)c2)nc(-c2ccccc2)n1`, the Potency was inconclusive: 79.4 µM [inhibitor, partial curve, poor fit]. `CN(C)c1ccc(NC(=O)CN2CCN(S(=O)(=O)c3cc(Cl)ccc3Cl)CC2)cc1` was tested, and the Potency was inconclusive: 17.8 µM [inhibitor, full curve, poor fit]. For `COCCN(C(=O)COC(=O)c1ccc2[nH]c(C)c(C)c2c1)c1c(N)n(Cc2ccccc2)c(=O)[nH]c1=O`, the Potency was inconclusive: 79.4 µM [inhibitor, single point]. In the case of `O=C(Nc1ccc(Cl)cc1C(F)(F)F)C(Sc1nnc(-c2cccs2)o1)c1ccccc1` (stereo not given), the Potency is reported as inconclusive: 7.94 µM [inhibitor, full curve, poor fit]. In the case of `CC#C[C@]1(O)CC[C@H]2[C@@H]3CCC4=CC(=O)CCC4=C3[C@@H](c3ccc(N(C)C)cc3)C[C@@]21C`, the Potency is reported as inconclusive: 14.1 µM [inhibitor, full curve, poor fit]. For `CCCC(=O)Nc1nnc(SCc2cc(=O)n3cccc(C)c3n2)s1`, the Potency was “inactive”. In the case of `CC(C)n1c(-c2ccco2)csc1=Nc1cccnc1`, the Potency is reported as inconclusive: 5.62 µM [inhibitor, full curve, poor fit]. With `O=C(/C=C/c1ccco1)N1CCN(S(=O)(=O)c2ccccc2)CC1` the Potency was active: 50.1 µM. In the case of `CCOc1ccccc1NC(=O)COc1coc(CN2CCCc3ccccc32)cc1=O`, the Potency is reported as “inactive”. For `COc1cccc(NC2c3ccccc3C(=O)N2Cc2ccco2)c1` (stereo not given), the Potency was “inactive”. With `O=c1[nH]c2ccccc2c2oc(CCl)nc12` the Potency was “inactive”.
